Experimental findings from patent publication US20240076343A1 (CEPHALON, published 2024) are described below.

Experiment [1] deals with T1, high-affinity hIL-2 receptor (IL-2Rαβγ) on NK-92 cells (human, UniProt P01589 22-272; P14784 27-551; P31785 23-369).
T1 sequence 1: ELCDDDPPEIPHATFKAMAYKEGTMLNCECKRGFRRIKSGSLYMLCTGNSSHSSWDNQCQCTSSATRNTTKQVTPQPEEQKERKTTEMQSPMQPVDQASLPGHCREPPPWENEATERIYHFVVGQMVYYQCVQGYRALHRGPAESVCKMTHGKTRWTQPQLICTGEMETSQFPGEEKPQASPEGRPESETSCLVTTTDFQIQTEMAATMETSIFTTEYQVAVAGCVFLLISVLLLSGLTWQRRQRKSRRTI
T1 sequence 2: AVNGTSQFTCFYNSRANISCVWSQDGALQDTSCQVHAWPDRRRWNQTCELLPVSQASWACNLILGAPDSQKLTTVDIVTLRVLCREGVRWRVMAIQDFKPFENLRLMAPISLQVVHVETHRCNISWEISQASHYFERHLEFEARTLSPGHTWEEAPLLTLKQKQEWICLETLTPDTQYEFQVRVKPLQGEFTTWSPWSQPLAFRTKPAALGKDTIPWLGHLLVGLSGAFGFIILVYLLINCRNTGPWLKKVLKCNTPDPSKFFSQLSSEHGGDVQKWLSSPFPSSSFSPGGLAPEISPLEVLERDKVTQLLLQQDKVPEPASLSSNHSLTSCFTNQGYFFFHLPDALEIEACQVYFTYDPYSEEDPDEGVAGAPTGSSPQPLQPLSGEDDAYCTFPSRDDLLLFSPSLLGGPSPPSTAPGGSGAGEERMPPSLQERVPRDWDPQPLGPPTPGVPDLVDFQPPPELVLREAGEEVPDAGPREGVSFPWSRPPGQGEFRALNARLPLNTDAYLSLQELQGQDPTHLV
T1 sequence 3: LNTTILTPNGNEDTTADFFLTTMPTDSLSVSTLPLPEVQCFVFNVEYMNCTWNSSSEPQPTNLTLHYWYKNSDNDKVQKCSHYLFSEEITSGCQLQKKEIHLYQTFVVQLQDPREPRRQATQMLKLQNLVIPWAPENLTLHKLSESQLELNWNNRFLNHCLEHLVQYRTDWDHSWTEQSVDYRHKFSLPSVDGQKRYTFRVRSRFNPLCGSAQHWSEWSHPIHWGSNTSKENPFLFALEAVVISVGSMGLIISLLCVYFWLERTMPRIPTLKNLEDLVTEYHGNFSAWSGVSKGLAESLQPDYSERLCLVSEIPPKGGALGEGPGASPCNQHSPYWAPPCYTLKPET
Briefly: cell-based or functional assay.

Experiment [2] has as its target T2, intermediate-affinity hIL-2 receptor (IL-2Rβγ) on TF1+IL-2Rβ cells (human, UniProt P14784 27-551; P31785 23-369).
T2 sequence 1: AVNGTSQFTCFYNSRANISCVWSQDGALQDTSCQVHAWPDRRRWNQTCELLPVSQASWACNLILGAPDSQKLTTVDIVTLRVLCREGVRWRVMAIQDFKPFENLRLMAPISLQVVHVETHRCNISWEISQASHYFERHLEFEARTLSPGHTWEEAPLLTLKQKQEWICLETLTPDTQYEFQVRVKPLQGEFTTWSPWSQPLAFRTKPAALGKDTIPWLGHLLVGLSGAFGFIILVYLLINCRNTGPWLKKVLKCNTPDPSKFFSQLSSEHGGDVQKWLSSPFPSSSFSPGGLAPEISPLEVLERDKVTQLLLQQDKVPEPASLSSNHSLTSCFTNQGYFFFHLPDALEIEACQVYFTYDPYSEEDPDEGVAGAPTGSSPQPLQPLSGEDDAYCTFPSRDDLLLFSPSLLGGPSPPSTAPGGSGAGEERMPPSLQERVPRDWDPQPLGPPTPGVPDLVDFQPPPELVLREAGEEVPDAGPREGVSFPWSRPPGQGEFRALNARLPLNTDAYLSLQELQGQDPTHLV
T2 sequence 2: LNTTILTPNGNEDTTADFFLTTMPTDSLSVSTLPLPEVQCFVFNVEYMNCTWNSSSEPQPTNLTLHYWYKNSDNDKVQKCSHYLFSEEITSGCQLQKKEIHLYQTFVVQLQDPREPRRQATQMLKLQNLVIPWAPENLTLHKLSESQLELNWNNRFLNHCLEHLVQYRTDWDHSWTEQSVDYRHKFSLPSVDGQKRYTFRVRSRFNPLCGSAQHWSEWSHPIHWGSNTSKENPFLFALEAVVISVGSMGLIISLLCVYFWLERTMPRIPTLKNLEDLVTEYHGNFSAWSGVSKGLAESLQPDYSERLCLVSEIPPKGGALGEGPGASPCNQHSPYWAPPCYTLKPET
Put plainly: cell-based or functional assay.

B1: 1H3-hIgG4-L6-hIL-2 (D20Y) (other)
heavy: EVQLVESGGGLVQPGRSLKLSCAVSGFTFSDYAMAWVRQAPKKGLEWVATISYDGSRTYYRDSVKGRFTISRDNAKITLYLQMDSLRSEDTATYYCARHGSGYFDYWGQGVMVTVSSASTKGPSVFPLAPCSRSTSESTAALGCLVKDYFPEPVTVSWNSGALTSGVHTFPAVLQSSGLYSLSSVVTVPSSSLGTKTYTCNVDHKPSNTKVDKRV[not shown - about 350 residues with a human IgG4 Fc and changes]
light: DTVLTQSPALAVSPGERVTISCRASESVRTGVHWYQQKPGQQPKLLIYGASNLESGVPARFSGSGSGTDFTLTIDPVEADDTATYFCQQSWNDPFTFGSGTKLEIKRTVAAPSVFIFPPSDEQLKSGTASVVCLLNNFYPREAKVQWKVDNALQSGNSQESVTEQDSKDSTYSLSSTLTLSKADYEKHKVYACEVTHQGLSSPVTKSFNRGEC
On to B1, for which the “Fold change from rhIL-2 (NK-92)” value in experiment [1] is over 10000 fold. The “Fold change from rhIL-2 (TF1 + IL-2Rβ)” value in experiment [2] is over 10000 fold.

B2: 1H3-hIgG1-df-hIL-2 (D20Y) (other)
heavy: EVQLVESGGGLVQPGRSLKLSCAVSGFTFSDYAMAWVRQAPKKGLEWVATISYDGSRTYYRDSVKGRFTISRDNAKITLYLQMDSLRSEDTATYYCARHGSGYFDYWGQGVMVTVSS[not shown - about 450 residues with a human IgG1 Fc and changes]
light: DTVLTQSPALAVSPGERVTISCRASESVRTGVHWYQQKPGQQPKLLIYGASNLESGVPARFSGSGSGTDFTLTIDPVEADDTATYFCQQSWNDPFTFGSGTKLEIKRTVAAPSVFIFPPSDEQLKSGTASVVCLLNNFYPREAKVQWKVDNALQSGNSQESVTEQDSKDSTYSLSSTLTLSKADYEKHKVYACEVTHQGLSSPVTKSFNRGEC
On to B2, for which, in experiment [1], the “Agonistic Activity (NK-92)” value came out at 90% and the “Fold change from rhIL-2 (NK-92)” value was about 8540 fold. Moreover, in experiment [2], the “Fold change from rhIL-2 (TF1 + IL-2Rβ)” value was over 10000 fold.

B3: 1H3-hIgG4-df-hIL-2 (D20Y) (other)
heavy: EVQLVESGGGLVQPGRSLKLSCAVSGFTFSDYAMAWVRQAPKKGLEWVATISYDGSRTYYRDSVKGRFTISRDNAKITLYLQMDSLRSEDTATYYCARHGSGYFDYWGQGVMVTVSSASTKGPSVFPLAPCSRSTSESTAALGCLVKDYFPEPVTVSWNSGALTSGVHTFPAVLQSSGLYSLSSVVTVPSSSLGTKTYTCNVDHKPSNTKVDKRV[not shown - about 350 residues with a human IgG4 Fc and changes]
light: DTVLTQSPALAVSPGERVTISCRASESVRTGVHWYQQKPGQQPKLLIYGASNLESGVPARFSGSGSGTDFTLTIDPVEADDTATYFCQQSWNDPFTFGSGTKLEIKRTVAAPSVFIFPPSDEQLKSGTASVVCLLNNFYPREAKVQWKVDNALQSGNSQESVTEQDSKDSTYSLSSTLTLSKADYEKHKVYACEVTHQGLSSPVTKSFNRGEC
Consider B3, for which, in experiment [1], the “Agonistic Activity (NK-92)” value turned out to be 60% and the “Fold change from rhIL-2 (NK-92)” value was over 10000 fold. Moreover, in experiment [2], the “Fold change from rhIL-2 (TF1 + IL-2Rβ)” value was over 10000 fold.

B4: 1H3-hIgG4-df-hIL-2 (D20A/R38E) (other)
heavy: EVQLVESGGGLVQPGRSLKLSCAVSGFTFSDYAMAWVRQAPKKGLEWVATISYDGSRTYYRDSVKGRFTISRDNAKITLYLQMDSLRSEDTATYYCARHGSGYFDYWGQGVMVTVSSASTKGPSVFPLAPCSRSTSESTAALGCLVKDYFPEPVTVSWNSGALTSGVHTFPAVLQSSGLYSLSSVVTVPSSSLGTKTYTCNVDHKPSNTKVDKRV[not shown - about 350 residues with a human IgG4 Fc and changes]
light: DTVLTQSPALAVSPGERVTISCRASESVRTGVHWYQQKPGQQPKLLIYGASNLESGVPARFSGSGSGTDFTLTIDPVEADDTATYFCQQSWNDPFTFGSGTKLEIKRTVAAPSVFIFPPSDEQLKSGTASVVCLLNNFYPREAKVQWKVDNALQSGNSQESVTEQDSKDSTYSLSSTLTLSKADYEKHKVYACEVTHQGLSSPVTKSFNRGEC
With B4, the “Fold change from rhIL-2 (NK-92)” value in experiment [1] was about 868 fold. Further, the “Fold change from rhIL-2 (TF1 + IL-2Rβ)” value in experiment [2] was over 10000 fold.
